# Assay results from paper PMC4336329 (PLoS ONE, 2015).
# In all, about 310,000 compounds went through this assay and about 14,000 (4.5%) showed an effect of 50% or more. Effects have a minus sign here. Some of the results follow.
# Molecular target: human ether-à-go-go-related gene (hERG) potassium channel (human, UniProt Q12809)
# Test: primary screen, population patch clamp on CHO cells stably expressing hERG
# 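Note: peak tail current of the secondary pulse compared with the same well before compound.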
# human ether-à-go-go-related gene (hERG) potassium channel, sequence (Q12809 whole entry, looked up): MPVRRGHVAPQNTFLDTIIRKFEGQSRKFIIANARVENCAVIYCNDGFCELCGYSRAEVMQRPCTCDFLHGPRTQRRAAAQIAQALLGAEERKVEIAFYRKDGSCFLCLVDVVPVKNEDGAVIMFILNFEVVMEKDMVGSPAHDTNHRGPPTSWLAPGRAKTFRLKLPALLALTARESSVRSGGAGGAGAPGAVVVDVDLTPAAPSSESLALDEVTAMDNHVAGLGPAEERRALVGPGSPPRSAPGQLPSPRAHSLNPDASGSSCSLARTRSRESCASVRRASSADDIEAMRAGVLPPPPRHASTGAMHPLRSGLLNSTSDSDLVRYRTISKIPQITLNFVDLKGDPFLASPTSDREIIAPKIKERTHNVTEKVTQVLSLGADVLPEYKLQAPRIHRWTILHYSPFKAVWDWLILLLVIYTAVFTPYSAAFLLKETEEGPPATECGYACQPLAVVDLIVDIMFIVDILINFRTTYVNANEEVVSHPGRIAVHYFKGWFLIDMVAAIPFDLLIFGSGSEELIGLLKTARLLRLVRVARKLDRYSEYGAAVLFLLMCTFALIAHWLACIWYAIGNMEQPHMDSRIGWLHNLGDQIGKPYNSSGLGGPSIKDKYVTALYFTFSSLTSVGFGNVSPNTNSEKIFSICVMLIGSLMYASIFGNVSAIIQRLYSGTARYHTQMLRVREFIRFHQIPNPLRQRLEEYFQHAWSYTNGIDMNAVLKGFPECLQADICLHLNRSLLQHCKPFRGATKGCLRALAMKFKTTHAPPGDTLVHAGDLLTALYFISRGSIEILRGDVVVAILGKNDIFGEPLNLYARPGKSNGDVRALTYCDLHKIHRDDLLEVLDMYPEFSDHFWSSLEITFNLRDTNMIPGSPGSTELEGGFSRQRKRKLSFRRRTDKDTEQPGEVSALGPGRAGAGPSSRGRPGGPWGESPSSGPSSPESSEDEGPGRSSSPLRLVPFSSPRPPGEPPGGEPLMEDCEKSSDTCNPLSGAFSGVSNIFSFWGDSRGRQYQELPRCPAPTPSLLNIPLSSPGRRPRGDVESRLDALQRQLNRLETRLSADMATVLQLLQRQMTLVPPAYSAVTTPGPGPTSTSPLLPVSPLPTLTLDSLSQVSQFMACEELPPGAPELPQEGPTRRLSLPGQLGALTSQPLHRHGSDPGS
row,SMILES,"hERG current change (%, negative = inhibition) at 10uM [%]"
1,CC(C)Oc1ccc(C(=O)CCN2CCOCC2)cc1,8.92
2,CCOc1ccc(N2CC(C(=O)Nc3ccc(S(=O)(=O)NCC4CCCO4)cc3)CC2=O)cc1 (centres unmarked),5.78
3,O=C(CSc1nnc2ccc(-c3ccccn3)nn12)NCCc1ccccc1,-6.49
4,Cn1c(NN)nc2ccccc2c1=O,13.6
5,Cc1ccsc1/C=N/Nc1ccc(C(=O)O)cc1,19
6,CCn1c2ccccc2c2cc(NS(=O)(=O)c3ccccc3C)ccc21,6.27
7,CCOc1ccc(NC(=O)[C@@H](NC(=O)c2ccccc2Br)C(C)C)cc1,-5.29
8,OC1CCCN(c2c3c(nc4cc(-c5cccc(F)c5)nn24)CCCC3)C1 (centres unmarked),-48
9,CCOc1ccccc1CNCCN1CCOCC1.Cl,14.6
10,CCc1ccc(N2C(=O)CN(Cc3cc(OC)c(OC)c(OC)c3)C2=S)cc1,-8.49
11,COc1ccc(OC)c(C2C(C(C)=O)=C(O)C(=O)N2CCN2CCOCC2)c1 (centres unmarked),-6.92
12,CCOc1ccc(NC(=O)COC(=O)C2C3CC4OC(=O)C2C4C3)cc1 (centres unmarked),16.2
13,COc1cccc(/C=C/C(=O)OCC(=O)Nc2ccc(N3CCOCC3)cc2)c1OC,34.9
14,CCOc1ccc(NC(=O)c2cc3ccccc3cc2OC)cc1,23.7
15,O=C(Nc1cc2c(cc1Br)OCCO2)c1cccnc1,1.58
16,CC(C)N(Cc1nc(-c2ccc(Cl)cc2)no1)C(=O)CN(C)S(=O)(=O)c1ccc(Cl)cc1,-7.68
17,Cc1ccc(C2=NS(=O)(=O)N(C)C(C(=O)NCc3ccco3)=C2)cc1,-58.4
18,O=C(NCc1ccccc1)c1ccc2nc(N3CCOCC3)sc2c1,-5.89
19,CC(C)c1ccc(S(=O)(=O)N2CCN(CC(=O)Nc3ccc4c(c3)OCO4)CC2)cc1,-13.9
20,CC(C)OC(=O)Cn1cc(C#N)c2ccccc21,5.25
21,CCOc1ccccc1NC(=O)Cn1nnc(C(=O)Nc2ccc(C)cc2)c1N,17.5
22,CCOc1ccc(Nc2nc(C)cc(C)c2C#N)cc1,2.66

row,SMILES,"hERG current change (%, negative = inhibition) at 10uM [%]"
1,NS(=O)(=O)c1ccc(NC(=O)COC(=O)COc2ccccc2)cc1,20.3
2,COC(=O)C1=C(c2ccc(-c3ccccc3)c(F)c2)C[C@@H]2CC[C@H]1N2C(=O)NCc1cccc2ccccc12,23.3
3,COC(=O)CCCC1=CC2=CC(=O)C(C)(OC(=O)c3cccs3)C(=O)C2=CN1CCCCO (centres unmarked),3.74
4,Cc1nc2cc(NS(=O)(=O)c3ccccc3F)ccc2s1,-5.78
5,CCOC(=O)c1c(NC(=O)c2cccs2)sc(CC)c1-c1cccs1,-11
6,COc1nc(/C(N)=N/O)nc(N2CCCCC2)n1,9.95
7,Cc1ccc(NC(=O)C2C3C=CC(O3)C2C(=O)O)c(C)c1 (centres unmarked),10
8,COc1cccc(CNC(=O)c2ccc(NC3=NC4CS(=O)(=O)CC4S3)cc2)c1 (centres unmarked),1.43
9,COc1cccc(-c2noc(N)c2C#N)c1,-11.6
10,COc1ccccc1NS(=O)(=O)c1cccc(NC(=O)c2cc3ccccc3oc2=O)c1,40.8
11,COc1nc(C#N)c(N2CCOCC2)o1,8.06
12,COC(=O)c1[nH]c2ccccc2c1NC(=O)CN1CC(C)OC(C)C1 (centres unmarked),0.295
13,COc1ccc(C2CC(C)=NN2C=O)cc1OC (centres unmarked),19.6
14,Cc1ccc(C(=O)Nc2ccccc2C(=O)NCc2ccccc2)cc1,5.63
15,CCOc1ccc(N2C(=O)CC(N(O)c3ccccc3)C2=O)cc1 (centres unmarked),2.96
16,COc1ccc(-c2cc(=Nc3ccc(C(=O)O)cc3)c3cc(C)ccc3o2)cc1,12.7
17,Cc1ccc(C(=O)O)cc1NC(=O)Nc1ccc2c(c1)OCO2,30.3
18,CCCCC[C@H]1CN(CCCC)C(=O)[C@@H]1CC(=O)NCc1ccc(OC)cc1,-71
19,CC(C)CCNC(=O)C(c1ccc(O)cc1)N(Cc1ccco1)C(=O)CCC(=O)Nc1nccs1 (centres unmarked),-41.2
20,CCN(CC)c1ccc(/C=N/n2c(C)cc(C)cc2=O)cc1,-5.07
21,C1CCc2c(nc3nnnn3c2NCC2CC2)C1,-5.16
22,CC(C)(C)c1ccc(/C=C/C(=O)NCCCN2CCOCC2)cc1,-35.9
